# The campaign covered roughly 410,000 compounds. About 7,200 (1.8%) were called active. This list was built around the results that the source calls inconclusive (neither active nor inactive); the mix of calls is not that of the screen. Calls follow the shape of the dose curve; as a rule, active = well fitted activation curve with a large enough effect; inconclusive = small, poorly fitted or top-dose-only effect, or another doubt; inactive = no such curve, though single readings can be large or run the other way. No potency is given beside an inconclusive call; the fits are too rough.
# Assay: qHTS of TDP-43 Inhibitors; also: nearly all actives have a fitted effect of over 50% in size; as to growth rescue (activation): % of control where 0% means no effect
# Conditions: TDP-43 expressing yeast growth rescue, BacTiter-Glo, 24 h; growth rescue (activation): at 46.1 µM (top of the series) unless noted
# How it was run: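 Luminescence from BacTiter-Glo reports growth of TDP-43-expressing yeast after 24 hr at 30 deg C with compound. Cells were raffinose-pregrown to mid-log, then seeded in galactose medium at OD600=0.02.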
# Potency is read from the fitted curve at half-maximal effect; tags tell the direction and shape of the fitted curve.
Structure (SMILES),Potency,growth rescue (activation)
C=CCNC(=S)/N=c1/ccccn1Cc1ccccc1,"inconclusive [activator, partial curve, poor fit]",
O=C(NC(=S)Nc1ccccc1Cl)c1ccco1,"inconclusive [activator, single point]",
CCCN(C(=O)CCn1cnc2onc(-c3ccc(F)cc3)c2c1=O)c1ccccc1C,"inconclusive [activator, single point]",
Clc1ccccc1Nc1nc(NCC2CC2)nc2ccsc12,"inconclusive [activator, single point]",
N/C(=N\OC(=O)c1cc(-c2ccccc2)nc2ccccc12)c1ccccn1,"inconclusive [activator, single point]",
CSc1cccc(NC(=O)C(C)Sc2ccc(C)cc2)c1 (centres undefined),"inconclusive [activator, full curve]",
Cc1cccc(OCC(=O)N(C)CC(=O)Nc2cccc(F)c2)c1C,"inconclusive [activator, partial curve]",
COC(=O)c1c[nH]c2c1-c1cc(C(=O)OCc3ccccc3)n(S(=O)(=O)c3ccc(C)cc3)c1C(=O)C2=O,"inconclusive [activator, partial curve, poor fit]",
COc1ccccc1N1C(=O)C2C(c3ccccc3F)NN(C(=O)c3ccc(C)cc3)C2C1=O (centres undefined),"inconclusive [activator, partial curve]",
CCCCNC(=S)N/N=C/c1ccc(C)s1,"inconclusive [activator, partial curve]",
CCOc1cc(CNC(=O)C(NS(=O)(=O)c2cccs2)C(C)C)cc(OCC)c1OCC (centres undefined),inactive,
CCn1c2ccccc2c2cc(/C=N/n3cn[nH]c3=S)ccc21,active: 15.8 µM,
CCCC(CC)Sc1nc2c([nH]1)c(=S)n(C)c(=O)n2C (centres undefined),active: 35.5 µM,
O=C(c1ccc(O)cc1)c1ccc(Cl)cc1,active: 11.2 µM,
Cc1ccc(C(C)NC(=S)NC2CCCCC2)c(C)c1 (centres undefined),inactive,
C/C(=N\OCC(=O)OCC(=O)NC(=O)c1ccc(OC(F)F)cc1)c1ccc2c(c1)OCO2,inactive,
Cc1cc(C(=O)OCC(=O)Nc2c(Cl)cccc2Cl)c(C)o1,"inconclusive [activator, single point]",
Cc1cc(NC(=O)Nc2cc(Cl)sc2Cl)no1,"inconclusive [activator, partial curve]",
CCOc1cc(CNC(=O)c2ccc(NC(=O)c3nsc4ccccc34)cc2)ccc1OC,inactive,
CCOC(=O)CSC1=NC(=O)/C(=C\c2ccc(OC(C)=O)cc2)S1,inactive,
Fc1ccccc1-c1cc2cc3c(cc2cn1)OCO3,"inconclusive [activator, full curve]",
N#CC1=C(SCc2ccccc2)NC(=O)CC1c1ccccc1 (centres undefined),"inconclusive [activator, single point]",
Cc1cccc(C=NOCCc2ccccc2)n1,"inconclusive [activator, partial curve]",
COc1cccc(-c2nc(N)nc(SC)c2C#N)c1,"inconclusive [activator, full curve, poor fit]",
COc1cc(OC)c2c(-c3ccccc3)cc(=O)oc2c1,inactive,

Structure (SMILES),Potency,growth rescue (activation)
N#C/C(=N\Nc1ccc(F)cc1)C(=O)C1CC1,"inconclusive [activator, single point]",
CCc1nnc(NC(=O)c2nc(S(=O)(=O)Cc3ccccc3)ncc2Cl)s1,inactive,
CCc1c(N)nc(N)nc1Nc1ccccc1Cl,inactive,
C=CCn1c(C)cc(C(=O)CSc2nnc(NCc3ccccc3)s2)c1C,active: 11.2 µM,
Fc1cccc(Cl)c1Cn1ncc2ccccc21,"inconclusive [activator, partial curve]",
Cc1ccc(C(=O)NCC(=O)OCc2cc(=O)n3nc(C4CCCCC4)sc3n2)cc1,inactive,
CC1Cc2ccccc2N1S(=O)(=O)c1cnc(Cl)c(Br)c1 (centres undefined),"inconclusive [activator, partial curve]",
Cc1cc(C)cc(N2C(=O)CC(c3ccc(C(F)(F)F)cc3)C3=C2COC3=O)c1 (centres undefined),inactive,
COc1ccccc1C(=O)Nc1cc(-c2cccc(Br)c2)nn1-c1ccccc1,inactive,
COc1ccc(Cl)cc1NC(=O)C(C)n1nnc2sc3c(c2c1=O)CCCC3 (centres undefined),inactive,
CN=c1scc(C)n1/N=C/c1cc(Br)c(O)c(OC)c1,active: 11.2 µM,
Cc1ccc(/C=C/C(=O)c2c(C)nc3ccccn23)cc1,"inconclusive [activator, single point]",
CC(C)N1CCc2c(sc(N)c2C#N)C1,inactive,
CCOC(=O)C(CC)n1nc(C)n2c(cc3sccc32)c1=O (centres undefined),"inconclusive [activator, partial curve]",
CC1CCC(NC(=O)C2(C)Cc3ccccc3C(=O)N2Cc2ccccc2Cl)CC1 (centres undefined),inactive,
Cc1cc(C)c2oc(C(=O)Nc3c(C(=O)c4ccc(F)cc4)oc4ccccc34)cc(=O)c2c1,inactive,
CCC(=O)c1cc(F)c(N2CCN(C(=O)c3ccco3)CC2)cc1C,"inconclusive [activator, single point]",
c1ccc(-c2ncnc3ccccc23)cc1,active: 12.6 µM,
Cc1c(C(=O)c2ccccc2C(=O)O)sc2ccccc12,active: 11.2 µM,
COc1ccc([C@@H]2C[C@H]3[C@@H](CN2S(=O)(=O)c2ccccc2)C(=O)C[C@@H](c2ccccc2F)N3S(=O)(=O)c2ccc(C)cc2)cc1,"inconclusive [activator, single point]",
Cc1ccc(CCNC(=O)c2sc3ncccc3c2-n2cccc2)cc1,inactive,
Cc1cc(C)cc(NC(=O)C(Cc2ccccc2)N2Cc3ccccc3C2=O)c1 (centres undefined),"inconclusive [activator, full curve, poor fit]",
O=C(N1CCN(c2ccc(F)cc2)CC1)C1(c2cccs2)CCOCC1,"inconclusive [activator, partial curve]",
O=S(=O)(c1ccc(SCc2ccccc2)nc1)N1CCCC1,"inconclusive [activator, partial curve]",
O=[N+]([O-])c1ccc(N2CCN(C(=S)NCc3ccc(Cl)cc3)CC2)cc1,"inconclusive [activator, single point]",

Structure (SMILES),Potency,growth rescue (activation)
CN(C)C1=NC[C@H](Cc2ccccc2)N1CCCC1CCCC1,inactive,
CS(=O)(=O)c1sc(C#N)c2c1C(=O)CC(c1ccccc1)C2 (centres undefined),"inconclusive [activator, single point]",
Nc1ccc(C#Cc2c(-c3ccsc3)oc3ccc(N4CCOCC4)cc23)cc1,"inconclusive [activator, single point]",
CCOCCCNC(=O)c1cc2sc(Cl)cc2n1CC,"inconclusive [activator, single point]",
Cc1ccc(NC2=CC(=O)C(=O)c3ccccc32)cc1,"inconclusive [activator, single point]",
Cc1ccc2[nH]cc(CCCN3C(=O)c4ccccc4C3=O)c2c1,"inconclusive [activator, single point]",
CCCCNC(=O)C1(C)CCN1C(=O)c1cc(F)ccc1C (centres undefined),"inconclusive [activator, full curve, poor fit]",
N/C(=N\OC(=O)Cc1ccccc1[N+](=O)[O-])c1ccccn1,"inconclusive [activator, partial curve]",
COc1ccc(CCn2c(C)cc(C(=O)COC(=O)c3cnccn3)c2C)cc1,"inconclusive [activator, partial curve]",
CC(=C/c1ccccc1)/C=N/n1c(C)n[nH]c1=S,"inconclusive [activator, partial curve]",
CCC(C)N=Cc1c(NCc2ccco2)nc2c(C)cccn2c1=O (centres undefined),active: 17.8 µM,
Clc1cc2nc(-c3cccnc3Cl)[nH]c2cc1Cl,"inconclusive [activator, single point]",
O=C1OC(/C(=C\Nc2ccccc2)[N+](=O)[O-])c2ccccc21 (centres undefined),inactive,
CCOC(=O)N1CCC(N(CCN(C)C)C(=S)Nc2cccc(C)c2)CC1,inactive,
Cn1c(C(=O)NN)cc2cc(Oc3ccccc3)ccc21,inactive,
COC(=O)[C@]12CCCCC=C1N(Cc1ccc(Cl)cc1Cl)C(=O)[C@H](CC(=O)NCc1cccc(C(F)(F)F)c1)C2,"inconclusive [activator, partial curve, poor fit]",
COc1ccccc1C(=O)Nc1nc(-c2ccc3c(c2)OCCO3)cs1,"inconclusive [activator, full curve, poor fit]",
COc1ccccc1CNC(=O)c1ccc2c(c1)OCO2,inactive,
Cc1ccccc1CC1(CO)CCCN(C(=O)c2ccccc2Cl)C1 (centres undefined),"inconclusive [activator, partial curve]",
CCOC(=O)Cc1csc(SCn2nnc3ccccc3c2=O)n1,"inconclusive [activator, single point]",
O=C(Nc1nc2c(Br)cccc2s1)C1CC1,,inconclusive: -89.6% [activator]
O=C(CSCc1c(Cl)cccc1Cl)Nc1ccc2c(c1)OCCO2,"inconclusive [activator, full curve]",
Nc1cc(N2CCCCC2)c([N+](=O)[O-])cc1Cl,"inconclusive [activator, single point]",
CC1CCN(C(=O)C2CCC(C)(C(=O)O)C2(C)C)CC1 (centres undefined),,inconclusive: 33% [activator]

# — PubChem BioAssay AID652104 (National Center for Advancing Translational Sciences (NCATS), 2013)
